# Measurements: paper PMC4336329 (PLoS ONE, 2015)
# Among all 310,000 compounds or so, about 14,000 (4.5%) showed an effect of 50% or more. Effects have a minus sign here. Some of the results follow.
# Target: human ether-à-go-go-related gene (hERG) potassium channel (human, UniProt Q12809)
# Experiment: primary screen, population patch clamp on CHO cells stably expressing hERG
# 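Further: peak tail current of the secondary pulse compared with the same well before compound.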
# Chain of human ether-à-go-go-related gene (hERG) potassium channel (Q12809 whole entry, looked up): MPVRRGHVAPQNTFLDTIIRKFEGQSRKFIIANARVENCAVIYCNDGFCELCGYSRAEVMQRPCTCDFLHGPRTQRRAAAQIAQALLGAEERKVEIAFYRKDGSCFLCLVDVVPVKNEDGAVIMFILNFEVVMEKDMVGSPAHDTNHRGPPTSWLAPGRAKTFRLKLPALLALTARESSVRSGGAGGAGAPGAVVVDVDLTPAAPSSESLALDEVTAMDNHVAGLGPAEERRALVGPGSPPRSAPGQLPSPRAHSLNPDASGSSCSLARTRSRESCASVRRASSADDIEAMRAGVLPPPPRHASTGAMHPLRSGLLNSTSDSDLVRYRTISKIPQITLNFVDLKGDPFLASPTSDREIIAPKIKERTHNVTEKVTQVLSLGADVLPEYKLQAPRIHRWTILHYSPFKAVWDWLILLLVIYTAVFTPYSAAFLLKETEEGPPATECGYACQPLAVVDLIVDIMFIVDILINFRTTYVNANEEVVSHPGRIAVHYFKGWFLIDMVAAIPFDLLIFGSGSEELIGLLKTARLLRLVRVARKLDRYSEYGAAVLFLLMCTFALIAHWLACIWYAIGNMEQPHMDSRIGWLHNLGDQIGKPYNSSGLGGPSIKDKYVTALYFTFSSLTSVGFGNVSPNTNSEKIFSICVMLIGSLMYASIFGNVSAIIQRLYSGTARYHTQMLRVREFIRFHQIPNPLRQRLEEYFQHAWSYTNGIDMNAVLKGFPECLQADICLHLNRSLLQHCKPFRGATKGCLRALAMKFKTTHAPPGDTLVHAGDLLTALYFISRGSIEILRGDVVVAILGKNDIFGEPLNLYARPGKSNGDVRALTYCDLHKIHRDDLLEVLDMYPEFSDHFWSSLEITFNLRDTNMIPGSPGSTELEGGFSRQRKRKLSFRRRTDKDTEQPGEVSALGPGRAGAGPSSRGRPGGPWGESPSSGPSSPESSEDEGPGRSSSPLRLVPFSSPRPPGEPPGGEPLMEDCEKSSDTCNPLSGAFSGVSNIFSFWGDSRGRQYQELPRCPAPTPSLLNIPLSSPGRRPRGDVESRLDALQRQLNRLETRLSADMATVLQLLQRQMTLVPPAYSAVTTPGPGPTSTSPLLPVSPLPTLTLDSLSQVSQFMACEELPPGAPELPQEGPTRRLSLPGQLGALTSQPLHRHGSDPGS
row,Compound,"hERG current change (%, negative = inhibition) at 10uM [%]"
1,COC(=O)/C=C1/SC(=Nc2ccc(Cl)c(Cl)c2)NC1=O,5.87
2,CN1CCc2c(sc(NC(=O)C3CCN(S(=O)(=O)c4cccs4)CC3)c2C(N)=O)C1.Cl,-30.8
3,Cn1c2ccc(Br)cc2c2nnc(SCC(=O)O)nc21,12.1
4,CCCC(=O)Nc1nnc(Cc2ccccc2)s1,-0.72
5,Cc1cc(OCCCCN2C(=O)NC(C)(C)C2=O)ccc1[N+](=O)[O-],0.319
6,O=C(CN(C(=O)CNS(=O)(=O)c1ccc(F)cc1)C1CCCC1)NCc1ccco1,-9.76
7,C=CCN(CC=C)S(=O)(=O)c1ccc(NC(=S)NC(=O)c2ccco2)cc1,9.12
8,Cc1nn(Cc2ccc(Cl)c(Cl)c2)c(C)c1NC(=O)c1cc(-c2ccc3c(c2)OCO3)on1,6.42
9,CCCCC(Sc1nc(N)c(NC(=O)c2ccco2)c(=O)[nH]1)C(=O)O (stereo not shown),13.6
10,COc1ccc(C(=O)Cc2cc3cccc(OC)c3oc2=O)cc1,11.9
11,O=C(N/N=C/c1c(Cl)cccc1Cl)c1n[nH]c2c1CCCC2,-1.9
12,COc1ccccc1OCCCN1C(=O)C(=O)c2cccc(C)c21,-13.3
13,N#Cc1ccc(OCC(=O)NCC2(N3CCCCC3)CCCCC2)cc1,-78.2
14,O=C(NC1(C(F)(F)F)C(=O)Nc2c1c(=O)[nH]c(=O)n2Cc1ccco1)C1CC1 (stereo not shown),-0.499
15,CCCCNC(=O)C(=O)N/N=C/c1ccc(OCc2ccccc2)cc1,18.7
16,COc1ccccc1CNC(=O)CN(C)S(=O)(=O)c1ccc(F)cc1,16.8
17,Cc1cccc(NC(=O)Cn2c(=O)oc3ccccc32)c1,8.12
18,Brc1ccc(-c2nc3ncccn3c2NC2CCCCC2)o1,-25.9
19,O=C(Nc1ccccc1)NC1CCCCNC1=O (stereo not shown),21.4
20,COc1ccc(S(=O)(=O)N2CCC(C(=O)Nc3nnc(C)s3)CC2)cc1OC,15.9

row,Compound,"hERG current change (%, negative = inhibition) at 10uM [%]"
1,COc1ccccc1CNC(=O)COC(=O)c1ccccc1SCC(=O)N1CCCC1,-13
2,COc1ccc(S(=O)(=O)N2CCCCCC2)cc1C(=O)Nc1cc(C)ccn1,-48
3,COCCN1C2=C(C(=O)CC(C)(C)C2)C(c2ccc(OC)c(OC)c2)C2=C1CC(C)(C)CC2=O,-9.47
4,CCCC(=NCC(=O)O)C1=C(O)C(C(=O)OC)C(C)(C)CC1=O (stereo not shown),10.1
5,O=C1NC(=S)N/C1=C/c1ccc2c(c1)OCO2,18
6,CNc1snc(C)c1C(=O)OC(C)C(=O)Nc1ccccc1 (stereo not shown),12.6
7,COc1ccc(/C=N/Nc2nc(N3CCCC3)nc(N3CCCC3)n2)cc1,-13.1
8,CCOC(=O)C1(Cc2cccc(F)c2)CCN(Cc2cnc(C)s2)CC1,-2.73
9,COc1cccc(N(CC(=O)Nc2cccc(N(C)S(C)(=O)=O)c2)S(C)(=O)=O)c1,3.24
10,CCN(C(=O)c1c(-c2ccccc2Cl)noc1C)C1CCCCC1,-0.584
11,O=[N+]([O-])c1cc(Cl)ccc1-c1nc(-c2ccncc2)no1,-10.3
12,CNC(=O)c1sc(SC)cc1-c1ccc(Cl)cc1,-4.92
13,CCOC(=O)CCC(=O)Nc1ccc(S(=O)(=O)N2CCc3ccccc32)cc1,20.1
14,CC(=N\O)/C(CN(C)C)=N/O,5.67
15,COC(=O)C1=C(C)OC(N)=C(C#N)C12C(=O)Nc1ccccc12 (stereo not shown),10.4
16,COc1cc(NC(=O)CSc2nncn2C)cc(OC)c1OC,14.1
17,CCCCCCCCCC(=O)Nn1cnc2ccccc2c1=O,0.742
18,N#CCCN(Cc1cccnc1)C(=S)NC1CC2C=CC1C2 (stereo not shown),2.95
19,Cc1ccccc1OCC(=O)N1CCCCCCC1,1.22
20,COc1cc(OC)cc(C(=O)Nc2nc(CC(=O)NCc3ccc(F)cc3)cs2)c1,0.373

row,Compound,"hERG current change (%, negative = inhibition) at 10uM [%]"
1,O=C(Nc1ccc(-c2ccccc2)cc1)c1ccccc1,7.94
2,COC(=O)c1ccc(C)c(NC(=O)C2COc3ccccc3O2)c1 (stereo not shown),7.36
3,O=C(Cn1nc(Cc2ccncc2)c2ccccc2c1=O)Nc1cccnc1Cl,-2.53
4,COc1cccc(NC(=O)NNC(=O)CCc2ccc(O)c(O)c2)c1,26.9
5,CCN1CCCC1CNCc1ccccc1OCc1ccc(F)cc1.Cl (stereo not shown),-65
6,Cc1ccc2cc(CCNC(=O)c3ccc(S(=O)(=O)N4CCOCC4)cc3)c(=O)[nH]c2c1,-15.4
7,O=C(Nc1ccnn1C1CCN(Cc2ccc(CO)o2)CC1)c1ccccc1,1.16
8,CCCN(CC(=O)Nc1ccccc1OC)C(=O)c1ccc(S(=O)(=O)NCc2ccco2)cc1,-27.7
9,CCOc1ccc(/C=N/NC(=O)c2ccc(O)cc2)cc1CN1CC2CC(C1)c1cccc(=O)n1C2 (stereo not shown),4.7
10,COC(=O)CSc1nc2ncccc2[nH]1,-4.58
11,O=C(CSc1nnc(NC(=O)c2cccc(F)c2)s1)NC1CCCC1,13.9
12,CC1(c2nnc(-c3ccncc3)o2)CC(c2cccnc2)=NO1 (stereo not shown),13
13,O=C(/C=C/c1ccc(N2CCC(c3ccccc3)=N2)cc1)c1ccccc1,11.3
14,O=C(COC(=O)CNC(=O)c1ccccc1)NCCc1ccccc1,4.17
15,CCc1ccc(N2C(=O)CC(N3CCC(C(=O)OC)CC3)C2=O)cc1 (stereo not shown),-3.29
16,CC1(C)NCCN2C(=O)CSC21.Cl (stereo not shown),10.1
17,O=C(CCC(=O)OCc1ccc([N+](=O)[O-])cc1)Nc1ccc(F)cc1,4.29
18,Cc1nccn1CCN(C)Cc1cn(Cc2ccccc2)nc1-c1ccc2c(c1)OCO2,-60
